From publication PMC9911399, “Two distinct binding modes provide the RNA-binding protein RbFox with extraordinary sequence specificity” come the findings set out here.

Positions count from the first letter of the chain named. This is one part of the list.

The labels stand for the following.
T1: RBFOX1 RRM RbFoxmut (Fox-RRM*) (Homo sapiens, UniProt Q9NWB1 109-208, R118D;E147R;N151S;E152T)
T1 sequence: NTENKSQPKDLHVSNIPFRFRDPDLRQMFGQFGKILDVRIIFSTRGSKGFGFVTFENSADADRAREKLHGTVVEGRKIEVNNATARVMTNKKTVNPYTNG

B1: UCUACAU (DNA:RNA)
RNA: GGGAGACCGGAAUUCAGAUUGUCCUCUACAUUUAAAUCCCGUCGUAGCCACCA
DNA 1: CAATCTGAATTCCGGTCTCCC
DNA 2: TGGTGGCTACGACGGGATT
B2: AAUACGU (DNA:RNA)
RNA: B1 RNA with U25A, C26A, A30G
DNA 1: CAATCTGAATTCCGGTCTCCC
DNA 2: TGGTGGCTACGACGGGATT
B3: CUCCACG (DNA:RNA)
RNA: GGGAGACCGGAAUUCAGAUUGUCCCUCCACGUUAAAUCCCGUCGUAGCCACCA
DNA 1: CAATCTGAATTCCGGTCTCCC
DNA 2: TGGTGGCTACGACGGGATT
B4: GCCUAUG (DNA:RNA)
RNA: B3 RNA with C25G, U26C, C28U, C30U
DNA 1: CAATCTGAATTCCGGTCTCCC
DNA 2: TGGTGGCTACGACGGGATT
B5: GUGAGGG (DNA:RNA)
RNA: B3 RNA with C25G, C27G, C28A, A29G, C30G
DNA 1: CAATCTGAATTCCGGTCTCCC
DNA 2: TGGTGGCTACGACGGGATT
B6: GUUGUGG (DNA:RNA)
RNA: B3 RNA with C25G, C27U, C28G, A29U, C30G
DNA 1: CAATCTGAATTCCGGTCTCCC
DNA 2: TGGTGGCTACGACGGGATT
B7: ACGAGAG (DNA:RNA)
RNA: B1 RNA with U25A, U27G, C29G, U31G
DNA 1: CAATCTGAATTCCGGTCTCCC
DNA 2: TGGTGGCTACGACGGGATT
B8: ACGCGUG (DNA:RNA)
RNA: B3 RNA with C25A, U26C, C27G, A29G, C30U
DNA 1: CAATCTGAATTCCGGTCTCCC
DNA 2: TGGTGGCTACGACGGGATT
B9: CGCUACC (DNA:RNA)
RNA: B3 RNA with U26G, C28U, G31C
DNA 1: CAATCTGAATTCCGGTCTCCC
DNA 2: TGGTGGCTACGACGGGATT
B10: AAUAAGG (DNA:RNA)
RNA: B3 RNA with C25A, U26A, C27U, C28A, C30G
DNA 1: CAATCTGAATTCCGGTCTCCC
DNA 2: TGGTGGCTACGACGGGATT
B11: GCUCAGG (DNA:RNA)
RNA: B3 RNA with C25G, U26C, C27U, C30G
DNA 1: CAATCTGAATTCCGGTCTCCC
DNA 2: TGGTGGCTACGACGGGATT
B12: AGAUGCC (DNA:RNA)
RNA: B3 RNA with C25A, U26G, C27A, C28U, A29G, G31C
DNA 1: CAATCTGAATTCCGGTCTCCC
DNA 2: TGGTGGCTACGACGGGATT
B13: CACAUCC (DNA:RNA)
RNA: B3 RNA with U26A, C28A, A29U, G31C
DNA 1: CAATCTGAATTCCGGTCTCCC
DNA 2: TGGTGGCTACGACGGGATT
B14: AGAUACU (DNA:RNA)
RNA: B3 RNA with C25A, U26G, C27A, C28U, G31U
DNA 1: CAATCTGAATTCCGGTCTCCC
DNA 2: TGGTGGCTACGACGGGATT
B15: GAAUCAC (DNA:RNA)
RNA: B1 RNA with U25G, C26A, U27A, A28U, U31C
DNA 1: CAATCTGAATTCCGGTCTCCC
DNA 2: TGGTGGCTACGACGGGATT
B16: GAUAGAU (DNA:RNA)
RNA: B1 RNA with U25G, C26A, C29G
DNA 1: CAATCTGAATTCCGGTCTCCC
DNA 2: TGGTGGCTACGACGGGATT
B17: GCGUUCA (DNA:RNA)
RNA: B3 RNA with C25G, U26C, C27G, C28U, A29U, G31A
DNA 1: CAATCTGAATTCCGGTCTCCC
DNA 2: TGGTGGCTACGACGGGATT
B18: ACCACAA (DNA:RNA)
RNA: B1 RNA with U25A, U27C, U31A
DNA 1: CAATCTGAATTCCGGTCTCCC
DNA 2: TGGTGGCTACGACGGGATT
B19: CCCAUCA (DNA:RNA)
RNA: B3 RNA with U26C, C28A, A29U, G31A
DNA 1: CAATCTGAATTCCGGTCTCCC
DNA 2: TGGTGGCTACGACGGGATT
B20: CCACAGC (DNA:RNA)
RNA: B3 RNA with U26C, C27A, C30G, G31C
DNA 1: CAATCTGAATTCCGGTCTCCC
DNA 2: TGGTGGCTACGACGGGATT

The target of the test is T1, RBFOX1 RRM RbFoxmut (Fox-RRM*). Nature of the test: EMSA; HiTS-Eq, 1 nM pool, 10 min; buffer printed only for the single-RNA assays: 10 mM Tris pH 7.5, 150 mM NaCl, 3.4 mM EDTA, 0.001% NP-40, 30 C. To be noted: tags: His6 N-terminal (pET28a); label: 5' 32P. In short, it runs like this:
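Purified RbFox RRM, wild type or mutant, was incubated for 10 min in 50 µL with 1 nM of a 5′-radiolabelled RNA pool carrying 7 randomized nucleotides, whose flanks were annealed to DNA oligonucleotides, over a series of increasing protein concentrations. Unbound RNA was resolved on 8% native PAGE, cut out, reverse-transcribed, barcoded by PCR and sequenced on an Illumina HiSeq 2500. Relative association constants were derived from changes in read counts for each RNA species versus the control reaction and normalised to the cognate motif.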
B1: the binding signal is 0.0991 KA relative to UGCAUGU.
Then B2, with 0.118 KA relative to UGCAUGU.
The result for B3 reads 0.0931 KA relative to UGCAUGU; that for B4, 0.128 KA relative to UGCAUGU.
On to B5, for which the binding signal is 0.0711 KA relative to UGCAUGU.
For B6, the binding signal is 0.104 KA relative to UGCAUGU.
The result for B7 reads 0.14 KA relative to UGCAUGU; that for B8, 0.159 KA relative to UGCAUGU; that for B9, 0.0756 KA relative to UGCAUGU.
Take B10: the binding signal is 0.0882 KA relative to UGCAUGU.
Then B11, with 0.0833 KA relative to UGCAUGU; and B12, with 0.193 KA relative to UGCAUGU; and B13, with 0.0726 KA relative to UGCAUGU.
Take B14: the binding signal is 0.0982 KA relative to UGCAUGU.
Then B15, with 0.172 KA relative to UGCAUGU.
Turning to B16, the binding signal was 0.0816 KA relative to UGCAUGU.
As for B17, the binding signal is 0.1 KA relative to UGCAUGU.
Then B18, with 0.0816 KA relative to UGCAUGU; and B19, with 0.133 KA relative to UGCAUGU; and B20, with 0.0892 KA relative to UGCAUGU.
